In the supplement of paper PMC5499739:
In all, about 16,000 sequences were measured (“Z-score”: median about -0.37, highest 2% from about 3.1 on). This is one part of the list.

What follows are sequences tested on RBM10 RRM1-ZnF-RRM2 (GST-tagged construct) (assay: RNAcompete 7-mer binding Z-score; higher = stronger binding preference).
Experimental: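 RNAcompete: 20 pmol GST-tagged RBM10 RNA-binding constructs were incubated with a designed RNA pool of about 241,000 sequences up to 41 nt (1.5 nmol) on glutathione beads for 30 min at 4 °C and washed. Bound RNAs were identified by microarray hybridisation. Each RNA 7-mer is scored by a one-sided Z-score of its enrichment, computed over probes that contain the 7-mer within longer pool sequences.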

Sequence | RNAcompete 7-mer binding Z-score
UGCCCCC | -0.464
GCAACGA | 0.0677
AGGCAAU | 0.701
AAGGAUA | 2.92
CUAGGGU | 2
CCCGACC | -0.952
UCGAUGC | -0.38
UUCUUCG | -0.708
GCAUGUG | 0.734
CUAUUAA | -0.828
GCUGUAC | -0.453
CGCAGAU | -0.5
AUCGGAC | -0.107
CUCAAAU | -0.832
CAUAGUU | -0.577
AAAAGUG | 0.833
AACUCUG | -0.828
GCGACGA | 0.101
AUAACAA | -0.176
UAUUGUG | -0.169
CGUUUUU | -0.781
GGCCCGA | -0.537
AUACUAA | -0.471
CAGGUGU | 1.13
GGGAGCC | 0.891

Sequence | RNAcompete 7-mer binding Z-score
AACUGUU | -0.646
GGUGCGA | 1.58
AUAUCGC | -0.573
UGGCGAG | 1.73
GCUAAAA | -0.0634
AUGUUGG | 0.913
UAUAUGU | -0.358
ACGCGCA | -0.446
CGCCGGC | -0.668
AGAAACA | -0.107
GCAAUCG | -0.125
GGGCUUG | 1.02
UGCUUAG | -0.22
CUUUCAC | -0.868
ACUAAGG | 1.05
UUACUCU | -0.766
UUUUCGU | -0.792
CCAUACU | -0.854
UGCUGUG | -0.333
ACGUUCG | -0.584
AUACAUU | -0.602
AGUGAUG | 0.8
AAUUAUG | -0.158
GGGUUCG | 1.77
AAGGCGC | 0.982

Sequence | RNAcompete 7-mer binding Z-score
CCACAGG | 0.0932
GUUAAGA | 0.37
UGCUGGA | 0.217
GCUAAAU | -0.337
GUGCCCU | -0.621
ACGCACG | -0.522
UUUCGCG | -0.719
AGCGUUC | -0.562
CUCAACC | -0.734
CUGAGAG | -0.0525
CGGCACG | 0.308
AUAUCUC | -0.792
CUCCCGA | -0.857
CACUAAG | -0.267
CCACAAA | -0.606
AUGGAAG | 3.16
GCACAAU | -0.246
UUGUUCA | -0.628
GAAGCGG | 2.32
CGACCAA | -0.475
AUCAAAC | -0.424
CUCGACC | -0.868
AGCCGCU | -0.854
GAUUGUC | -0.606
CUCUCCU | -0.697

Sequence | RNAcompete 7-mer binding Z-score
GGCCGAU | -0.0998
GAGUUCA | -0.315
CGAAAGA | -0.0634
GAGUCAG | 0.705
GGUAGGC | 2.65
AGAUGCU | -0.777
AUAGACC | -0.475
ACAGCGG | 1.21
UCAUUGG | -0.0525
UGCGAUC | -0.657
UGAUUCU | -0.704
GGGAGAG | 2.53
CGCUCGC | -0.661
ACGGUAG | 1.21
UCGACGC | -0.635
GGCCCCC | -0.286
UCCAGUC | -0.715
CCUUAUG | -0.854
AGCUAAG | -0.165
ACGCUUU | -0.865
ACCGGUC | -0.588
UCUACAU | -0.675
GACGGGG | 2.79
GUAACAC | -0.0525
CCCGACA | -0.69

Sequence | RNAcompete 7-mer binding Z-score
GGACACU | 0.0422
CGGGAAA | 2.26
ACGGAAC | 0.785
AUAAGCC | -0.777
CUUGUCG | -0.737
GGGCCGG | 1.34
CAGCGGU | 0.406
UGGUGCU | 0.694
AUCACCU | -0.876
AGCAUGG | 1.8
GUCCACC | -0.726
GUUCUAC | -0.759
ACACCAU | -0.555
UAAGCGC | -0.508
CGGUGAA | 0.723
GUAGCUG | 0.25
AACAUCA | -0.562
AAUAACA | -0.264
AUAACGG | 0.891
CUCCUGC | -0.774
CGCCGAG | -0.573
AUCCUCG | -0.832
GCAACCU | -0.643
GUUGCCA | -0.446
UCGCUCC | -0.664

Sequence | RNAcompete 7-mer binding Z-score
GCCCUAC | -0.704
CCACAGU | -0.413
UGUCGCG | -0.446
CUGUGGC | -0.129
UCCCCAG | -0.315
UCGUACG | -0.122
GAUACUC | -0.701
CCCCACA | -0.65
CUGACAU | -0.537
UCACCUU | -0.945
GAGAAAU | 0.41
GCCGUUU | -0.901
CGACCAG | -0.216
GGUGCCC | 0.0495
CUGACCA | -0.632
UUCGGAC | -0.289
AGAAAGG | 4.73
GUAAGGG | 3.65
GGUUUGU | 0.811
CGGCAAG | 0.497
AGACAGU | -0.158
ACCCGGA | -0.551
CCGAUGC | -0.701
UUUGAGG | 0.352
UUCGGGA | 0.734

Sequence | RNAcompete 7-mer binding Z-score
AACGACA | -0.253
UCGUUUU | -0.508
AAAUGUC | -0.533
CAAAGAC | -0.227
CCGAGUG | 0.0167
GCCGGGC | -0.195
GGCGGUU | 1.23
UUUGGCA | -0.264
AGUACGU | -0.0233
UGCAGGC | 0.596
GGUAGAG | 3.68
GUAGUCC | -0.402
CCCUCUU | -0.89
UAGGUGC | 1.12
UUCGGUC | -0.446
GUUGGUC | 0.308
UUCGGUU | -0.129
GACGUAC | -0.26
ACUGAGC | -0.122
UAGGCUG | 0.523
UUGGGCG | 2.45
GAGUCAU | -0.0561
UGGGCGG | 3.38
AGCAGCA | -0.0962
UUGAAGG | 1.9

Sequence | RNAcompete 7-mer binding Z-score
AUGGUGU | 1.97
UCAGUUG | -0.315
CACUGCC | -0.595
GUUCCCU | -0.664
GUGAUAC | 0.275
AUAAGGC | 0.854
ACUAUCC | -0.905
CGUAAUC | -0.511
GUAAACA | 0.374
CGCCUGC | -0.595
CCUAAGC | -0.901
GCCAACG | 0.0896
GUGGAUG | 2.35
GUAAUUA | -0.351
AGUCGUC | -0.125
GGGAUCC | 1.24
AGGAUAG | 2.21
AGCACGU | -0.176
UGAUUUC | -0.836
GAUGGAC | 1.76
GUGCCUG | -0.26
CGCCGAC | -0.734
AGCACAA | -0.322
UAUGAUA | -0.326
AAUGCUC | -0.81

Sequence | RNAcompete 7-mer binding Z-score
CUUCGUU | -0.836
GUUUCGG | 0.567
GAAACGC | -0.315
ACGCCAG | -0.431
CAACGUA | -0.38
CGAUACA | -0.0561
GGCUGGU | 0.822
CCUUUGC | -0.974
UCUUGAG | -0.606
CUCAAGG | 0.304
CGUGGAU | 1
GCCUUCA | -0.854
CGCGUGC | -0.0853
AAUAGAU | 0.283
UUCCACG | -0.613
CUACGAU | -0.559
AAAGUAU | -0.162
UUAUUGG | 0.414
AAAAGAU | -0.256
UACUGUG | -0.289
ACGCGCU | -0.551
UAACUAA | -0.49
CUCGUUA | -0.734
CCACAUG | -0.3
CACUGGC | -0.439

Sequence | RNAcompete 7-mer binding Z-score
UCGGACG | 0.144
UACGCUU | -0.726
CGGACUG | 0.13
CUUUCGU | -0.81
UAGAGAA | 0.501
UAAGCCG | -0.42
AUUUCUA | -0.77
AUGUGAU | 0.0532
GAAAGAU | 0.359
GGAGGAC | 1.98
GGACGCU | 0.25
CCACGCU | -0.468
CUCCUAU | -0.956
GAGACUC | -0.493
GUUGUGC | 0.192
GAGGUAC | 1.85
AUGUGGG | 3.6
GCCAAAU | -0.508
GGAAGCC | 0.479
ACGUAGA | 0.559
CUAUGUA | -0.541
GUAGUAA | 0.516
CUUACUG | -0.653
CUGAAAG | -0.195
GGCAGGG | 2.76

Sequence | RNAcompete 7-mer binding Z-score
GCAGCAA | 0.0604
UGGGAGG | 4.58
UUAAUAC | -0.544
UCGAAGC | -0.3
UGCCAGA | -0.42
AACUGCU | -0.777
ACCUGGG | 0.457
AAUGGUA | 2.49
GCCAACC | -0.544
GCGCCCU | -0.468
UGCGACG | 0.13
UGGAAAA | 1.15
CCAAAGG | 0.454
UAAAUGG | 1.36
UCUCAAA | -0.712
AAACUGG | 0.683
GAGGUGC | 1.65
GGUAACC | 1.03
ACUCCGA | -0.581
GGUUUAA | 0.589
GACGUUA | -0.198
CAUCUAG | -0.533
UUCGCUA | -0.792
CAGACCA | -0.388
AGAGCUA | -0.526

Sequence | RNAcompete 7-mer binding Z-score
CCACAAG | -0.479
AUAUUAU | -0.369
CAAUAGU | 0.0277
AAACAUU | -0.475
ACUUCUC | -0.879
UUCCCUA | -0.872
UUUGAAG | -0.209
GUUUUGC | -0.249
AUUAACU | -0.65
GCCUCUC | -0.857
GCGAGAC | 0.279
UUUGGCU | -0.566
UGACCCU | -0.777
AUCUGUG | -0.573
UAUCAUA | -0.464
AGUGUGU | 0.527
CGGCAGC | 0.0277
CCGAGAG | -0.286
CAUAGCG | -0.409
UAGACGG | 1.54
UGAAUAA | -0.129
UUAAAAC | -0.493
CCAACUU | -0.927
CCACUCA | -0.661
CACAUGA | -0.369

Sequence | RNAcompete 7-mer binding Z-score
AGUUAUG | 0.119
ACAUAAC | -0.457
AAGAUAG | 0.789
ACGUGAC | -0.114
UCAGACC | -0.639
CGCCCAC | -0.755
AGUAGAU | 0.399
CUUGACG | -0.683
GUUGAUU | -0.282
UCCAAUU | -0.755
CUGCGUU | -0.61
GUCUUAC | -0.679
CCCAUCC | -0.624
CGAAAGU | -0.271
CGGUCAC | -0.209
CGCAGCC | -0.683
AUAUGGU | 2.06
UCAAAAC | -0.358
CUUGGCU | -0.69
UUCUCCG | -0.708
CAAACUA | -0.573
CCUCGCU | -0.828
CUCCGUA | -0.679
GCGAUCA | 0.0568
UGGUAAG | 1.73

Sequence | RNAcompete 7-mer binding Z-score
UGCCCAG | -0.708
GUCGAUG | 0.162
AGGAGGA | 2.22
AGCCGUA | -0.471
CGAGGAU | 1.1
UAUGAAU | -0.0853
CGAUGAC | -0.209
UAGAGGC | 1.05
AUUCUAU | -0.741
CCUCGAG | -0.65
CGACUCG | -0.617
ACAGGAG | 2.7
CCGAACA | -0.541
CUUCGCC | -0.923
UCUCGUA | -0.701
CGUACCU | -0.77
CCACACC | -0.497
AGGGUCA | 1.51
GCGUGCG | 0.782
GUGAACC | -0.00877
AUGCUGG | 0.585
AGACCGU | -0.996
CUGGUUG | 0.17
UACCAUA | -0.391
AAUUACC | -0.748

Sequence | RNAcompete 7-mer binding Z-score
CGGUUAU | 0.0823
GUCCAGA | -0.275
CGUGGCG | 1.36
AGUUAUU | -0.588
CUUAUAU | -0.854
CCUGGGC | 0.29
UGAUCGC | -0.708
ACCGCGG | 0.548
AUUAAGA | -0.103
AGGGCGU | 1.3
UAAGGAC | 1.51
AGCUGCA | -0.351
GACUAUA | -0.417
UUAAGCA | -0.449
AUGCCAC | -0.723
ACUUUAG | -0.69
GAUUAGU | 0.439
